Out of some 310,000 compounds screened, about 14,000 (4.5%) showed an effect of 50% or more. Effects have a minus sign here. Some of the results follow.
Molecular target: human ether-à-go-go-related gene (hERG) potassium channel (human, UniProt Q12809)
Experiment: primary screen, population patch clamp on CHO cells stably expressing hERG
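Also: peak tail current of the secondary pulse compared with the same well before compound.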

human ether-à-go-go-related gene (hERG) potassium channel, sequence (Q12809 whole entry, looked up): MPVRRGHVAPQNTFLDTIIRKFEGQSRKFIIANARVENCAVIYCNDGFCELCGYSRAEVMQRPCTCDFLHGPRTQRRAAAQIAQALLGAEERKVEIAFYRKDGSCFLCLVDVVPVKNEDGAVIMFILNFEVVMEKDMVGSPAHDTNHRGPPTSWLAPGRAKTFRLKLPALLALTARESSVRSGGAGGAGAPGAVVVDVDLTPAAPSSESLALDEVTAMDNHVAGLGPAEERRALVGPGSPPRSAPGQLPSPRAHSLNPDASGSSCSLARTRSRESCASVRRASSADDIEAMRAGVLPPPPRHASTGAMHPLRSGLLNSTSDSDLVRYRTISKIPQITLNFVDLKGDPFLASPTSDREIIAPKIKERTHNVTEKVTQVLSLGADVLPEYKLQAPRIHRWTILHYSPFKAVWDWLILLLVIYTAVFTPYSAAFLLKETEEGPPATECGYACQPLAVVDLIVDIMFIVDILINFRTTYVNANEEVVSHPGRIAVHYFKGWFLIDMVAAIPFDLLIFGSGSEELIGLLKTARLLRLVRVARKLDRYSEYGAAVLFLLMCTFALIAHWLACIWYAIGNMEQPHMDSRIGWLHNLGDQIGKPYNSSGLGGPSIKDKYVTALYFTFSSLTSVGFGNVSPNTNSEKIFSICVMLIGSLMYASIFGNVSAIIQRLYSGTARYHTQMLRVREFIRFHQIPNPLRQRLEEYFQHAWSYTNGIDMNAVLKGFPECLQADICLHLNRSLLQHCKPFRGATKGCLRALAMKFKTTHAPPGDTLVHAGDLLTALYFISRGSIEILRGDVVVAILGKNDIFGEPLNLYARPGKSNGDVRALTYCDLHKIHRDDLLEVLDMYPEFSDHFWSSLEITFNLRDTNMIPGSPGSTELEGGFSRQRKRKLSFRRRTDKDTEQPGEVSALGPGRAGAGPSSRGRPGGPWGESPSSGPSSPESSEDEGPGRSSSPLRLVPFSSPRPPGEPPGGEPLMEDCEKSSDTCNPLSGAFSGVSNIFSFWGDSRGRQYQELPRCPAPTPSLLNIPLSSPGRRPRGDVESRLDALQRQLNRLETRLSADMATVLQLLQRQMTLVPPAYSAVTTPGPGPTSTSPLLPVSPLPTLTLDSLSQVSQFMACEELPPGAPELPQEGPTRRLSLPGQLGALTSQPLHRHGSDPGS

Question: With `O=C(N/N=C/c1cccc(NC(=O)c2ccc(Cl)cc2)c1)c1ccc(O)cc1` as the compound, how does the “hERG current change (%, negative = inhibition) at 10uM” value read?
Answer: 9.71%

Question: With `Cc1c(Cl)cccc1NC(=O)Nc1ccc(C(N)=O)cc1` as the compound, how does the “hERG current change (%, negative = inhibition) at 10uM” value read?
Answer: 13%

Question: How did the “hERG current change (%, negative = inhibition) at 10uM” value turn out when `O=C(Nc1ccc(-n2ccnc2P(=O)(O)c2ccccc2)cc1)c1ccccc1Br` was run?
Answer: -14.9%

Question: With `COc1cc(C(=O)Nc2cccc(-c3cn4cccnc4n3)c2)cc(OC)c1OC` as the compound, how does the “hERG current change (%, negative = inhibition) at 10uM” value read?
Answer: -1.35%

Question: With `CCN(CC(=O)Nc1ccc(OC)cc1)CC(=O)Nc1cccc(C#N)c1` as the compound, how does the “hERG current change (%, negative = inhibition) at 10uM” value read?
Answer: 0.389%

Question: For `CCN(CC)S(=O)(=O)c1ccc(N)cc1`, which “hERG current change (%, negative = inhibition) at 10uM” value is on record?
Answer: 8.97%

Question: For `O=C(/C=C/c1cnc2ccccc2n1)NC12CC3CC(CC(C3)C1)C2`, which “hERG current change (%, negative = inhibition) at 10uM” value is on record?
Answer: -13.1%

Question: How did the “hERG current change (%, negative = inhibition) at 10uM” value turn out when `O=C(CN1CCN(Cc2ccccc2)CC1)c1ccccc1` was run?
Answer: 1.35%

Question: Which “hERG current change (%, negative = inhibition) at 10uM” value does the source give for `CCCCn1c(O)c(C(C)=NCCN2CCOCC2)c(=O)[nH]c1=O` here?
Answer: -14.8%

Question: Which “hERG current change (%, negative = inhibition) at 10uM” value does the source give for `COc1ccccc1NS(=O)(=O)c1ccccc1C#N` here?
Answer: 11.2%

Question: For `CCCOC(=O)Oc1ccc2c(=O)c(Oc3cc(C)cc(C)c3)coc2c1`, which “hERG current change (%, negative = inhibition) at 10uM” value is on record?
Answer: -0.543%

Question: For `COc1cc(OC)cc(C(=O)Nc2ccccc2NC(C)=O)c1`, which “hERG current change (%, negative = inhibition) at 10uM” value is on record?
Answer: 15.6%

Question: With `C=CCNC(=O)c1cc(=O)c2ccccc2o1` as the compound, how does the “hERG current change (%, negative = inhibition) at 10uM” value read?
Answer: 6.24%

Question: Which “hERG current change (%, negative = inhibition) at 10uM” value does the source give for `CCOC(=O)C1CCCN(S(=O)(=O)c2ccc3c(c2)NC(=O)CO3)C1` (centres unmarked) here?
Answer: -1.47%

Question: With `CCOC(=O)Cc1nc(-c2ccccc2)n[nH]1` as the compound, how does the “hERG current change (%, negative = inhibition) at 10uM” value read?
Answer: 20%

Question: For `CC1(C)CNC(=O)c2sc(NC(=O)c3ccccc3)nc2C1`, which “hERG current change (%, negative = inhibition) at 10uM” value is on record?
Answer: 13.3%

Question: `CC1CCCC/C1=N/Nc1ccc([N+](=O)[O-])cc1[N+](=O)[O-]` (centres unmarked) was tested. Which “hERG current change (%, negative = inhibition) at 10uM” value did it give?
Answer: -1.11%

Question: Which “hERG current change (%, negative = inhibition) at 10uM” value does the source give for `CCC(C)NC(=O)[C@@H]1CSC2c3ccccc3C(=O)N21` (some centres unmarked) here?
Answer: -2.29%

Question: How did the “hERG current change (%, negative = inhibition) at 10uM” value turn out when `COc1cccc(OC)c1C(=O)NC(=O)Nc1c(F)cc(F)cc1F` was run?
Answer: 8.36%

Question: Which “hERG current change (%, negative = inhibition) at 10uM” value does the source give for `O=C(NC1=NCCS1)C1CCN(S(=O)(=O)c2ccccc2C(F)(F)F)CC1` here?
Answer: 6.92%

Question: How did the “hERG current change (%, negative = inhibition) at 10uM” value turn out when `CCN(CC)CCOC(=O)C1(c2ccccc2)CCOCC1.Cl` was run?
Answer: 10.5%

Question: For `O=C(COC(=O)Cn1[nH]c(=O)c2ccccc2c1=O)Nc1c(Cl)cccc1C(F)(F)F`, which “hERG current change (%, negative = inhibition) at 10uM” value is on record?
Answer: -3.08%

Question: Which “hERG current change (%, negative = inhibition) at 10uM” value does the source give for `Cc1nn(C(=O)c2cccnc2)c(C)c1Sc1ccc(Br)cc1` here?
Answer: -16.3%

Question: For `CCOC(=O)Nc1nc2ccccc2s1`, which “hERG current change (%, negative = inhibition) at 10uM” value is on record?
Answer: 7.09%

Question: Which “hERG current change (%, negative = inhibition) at 10uM” value does the source give for `O=C(O)C1CCC(CN(Cc2cccc(Br)c2)C(=S)Nc2ccccc2F)CC1` (centres unmarked) here?
Answer: 28.8%

Question: With `O=C(Cn1[nH]c(=O)c2ccccc2c1=O)NNC(=O)c1ccccc1` as the compound, how does the “hERG current change (%, negative = inhibition) at 10uM” value read?
Answer: 5.57%
